Our source for the binding values is paper PMC6643034.

Sequences of proteins named here, by UniProt entry; tags and fusion partners are left off. Residues count along the entry.
UniProt P02778, residues 22-98: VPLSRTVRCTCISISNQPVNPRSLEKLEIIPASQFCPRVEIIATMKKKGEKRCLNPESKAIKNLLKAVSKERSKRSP
UniProt O14625, residues 22-94: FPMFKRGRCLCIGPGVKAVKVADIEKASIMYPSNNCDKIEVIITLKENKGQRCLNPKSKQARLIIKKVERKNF
UniProt P80098, residues 24-99: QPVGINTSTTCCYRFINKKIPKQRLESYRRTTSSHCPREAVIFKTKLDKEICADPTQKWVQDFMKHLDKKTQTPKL
UniProt P13236, residues 24-92: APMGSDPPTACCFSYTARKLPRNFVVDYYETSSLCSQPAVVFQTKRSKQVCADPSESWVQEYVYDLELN
UniProt P42830, residues 37-114: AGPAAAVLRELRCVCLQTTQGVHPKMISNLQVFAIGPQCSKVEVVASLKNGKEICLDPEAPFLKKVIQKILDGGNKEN
UniProt P10147, residues 24-92: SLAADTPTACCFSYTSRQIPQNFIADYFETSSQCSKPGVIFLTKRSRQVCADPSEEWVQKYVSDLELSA
UniProt Q99616, residues 17-98: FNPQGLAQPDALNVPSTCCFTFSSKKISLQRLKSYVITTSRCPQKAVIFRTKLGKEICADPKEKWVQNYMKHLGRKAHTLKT
UniProt Q99731, residues 22-98: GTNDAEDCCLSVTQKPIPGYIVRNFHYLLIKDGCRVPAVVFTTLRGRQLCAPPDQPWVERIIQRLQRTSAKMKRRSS
UniProt P13501, residues 24-91: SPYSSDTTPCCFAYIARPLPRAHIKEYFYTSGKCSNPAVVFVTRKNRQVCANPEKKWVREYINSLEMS
UniProt O43927, residues 23-109: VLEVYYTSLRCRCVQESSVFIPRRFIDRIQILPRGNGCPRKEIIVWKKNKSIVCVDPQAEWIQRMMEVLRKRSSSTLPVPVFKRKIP
UniProt P78556, residues 27-96: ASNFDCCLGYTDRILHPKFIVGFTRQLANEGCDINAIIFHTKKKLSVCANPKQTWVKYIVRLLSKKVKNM
UniProt O00585, residues 24-134: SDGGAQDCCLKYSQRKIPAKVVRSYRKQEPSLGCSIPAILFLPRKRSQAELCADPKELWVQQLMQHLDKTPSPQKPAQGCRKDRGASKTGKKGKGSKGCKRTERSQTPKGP

Results are given in words; binding and its absence hold for the method and conditions named. Some binding calls cover weakened binding; strength is not graded here. For part of these data: Sequences can lack the tags named with a protein.

Test [1] addresses T1, Evasin 3 (EVA3) (Rhipicephalus sanguineus) (UniProt P0C8E8).
T1 sequence (chain, glycosylated (periodic acid–Schiff staining)): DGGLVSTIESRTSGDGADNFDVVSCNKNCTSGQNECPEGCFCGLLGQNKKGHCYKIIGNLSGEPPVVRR
The experiment in a line: BLI; OctetRed; evasin held on a nickel-coated biosensor by its C-terminal His tag; cross-binding screen of a panel of human chemokines at 300 nM; both purified.

In test [2] the target is T2, EVA3_RHISA (Rhipicephalus sanguineus) (UniProt P0C8E8).
T2 sequence: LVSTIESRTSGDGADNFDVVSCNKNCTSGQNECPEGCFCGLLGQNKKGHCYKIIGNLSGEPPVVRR
The experiment in a line: BLI; cross-binding screen on OctetRed; evasin held on a nickel-coated biosensor through its C-terminal His tag; each human chemokine at 300 nM; both purified. For orientation: Biolayer interferometry detects binding as a change in optical thickness at a sensor tip.

The target of test [3] is T3, P1172_IXORI (Ixodes ricinus) (UniProt V5I2G9).
T3 sequence: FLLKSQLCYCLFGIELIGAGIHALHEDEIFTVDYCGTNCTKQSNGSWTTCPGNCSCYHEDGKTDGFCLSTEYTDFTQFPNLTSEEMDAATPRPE
The description is as above.

Test [4] concerns the target P1124_IXORI (Ixodes ricinus). The test is described as above.
The target in test [5] is T4, P1126_AMBCA (Amblyomma cajennense).
T4 sequence: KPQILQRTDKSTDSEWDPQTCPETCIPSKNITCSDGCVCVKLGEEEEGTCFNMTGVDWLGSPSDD
Described as above.

For test [6], the target named is P1086_IXORI (Ixodes ricinus). Described as above.
For test [7], the target named is P1090_IXORI (Ixodes ricinus). The description is as above.
Test [8] addresses T5, P1142_AMBCA (Amblyomma cajennense).
T5 sequence: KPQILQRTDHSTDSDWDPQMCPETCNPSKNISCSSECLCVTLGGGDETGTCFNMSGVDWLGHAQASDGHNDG
The test is described as above.

Test [9] has as its target P1080_IXORI (Ixodes ricinus). Described as above.
The target of test [10] is P1078_IXORI (Ixodes ricinus). Described as above.
The target of test [11] is P942_IXORI (Ixodes ricinus). The test is described as above.
The target of test [12] is P1100_IXORI (Ixodes ricinus). The description is as above.

As for “CXC-motif chemokine ligand 10 (CXCL10) (from UniProt P02778 22-98)”, the binding entry in test [1] is listed as “no binding (tested: 300 nM)”.

Regarding “CXCL11 (from UniProt O14625 22-94) (ligand)”, the binding entry in test [1], in test [2] and in [3] was “no binding (tested: 300 nM)” each time.

In the case of “CCL7 (from UniProt P80098 24-99) (ligand)”, the binding entry in test [4], in test [5], in test [2], in [6], in [7] and in [8] was “no binding (tested: 300 nM)” throughout. Besides, the binding result in test [9], in test [10], in test [3], in test [11] and in test [12] was “no binding (tested: 300 nM)” in each case.

For the substance “CCL4 (from UniProt P13236 24-92) (ligand)”, the binding result in test [4], in test [5], in test [2], in test [6], in test [7] and in test [8] was “no binding (tested: 300 nM)” throughout. The binding result in test [9], in [10], in test [3], in test [11] and in [12] was “no binding (tested: 300 nM)” throughout.

With “CXCL5 (from UniProt P42830 37-114) (ligand)”, the binding entry in [4], in [5], in [2], in [6], in test [7] and in test [8] was “binds” in each case. Besides, the binding result in test [9], in test [10], in test [3], in test [11] and in test [12] was “binds” in each case.

“CCL3 (from UniProt P10147 24-92) (ligand)”: the binding result in test [4], in [5], in test [2], in test [6], in [7] and in [8] was “no binding (tested: 300 nM)” throughout. The binding result in test [9], in test [10], in [3], in [11] and in test [12] was “no binding (tested: 300 nM)” throughout.

For “CCL13 (from UniProt Q99616 17-98) (ligand)”, the binding entry in test [4], in [5], in [2], in test [6], in test [7] and in [8] was “no binding (tested: 300 nM)” throughout. In addition, the binding result in test [9], in [10], in [3], in test [11] and in test [12] was “no binding (tested: 300 nM)” throughout.

For “CCL19 (from UniProt Q99731 22-98) (ligand)”, the binding result in [4], in [5], in test [2], in test [6], in [7] and in test [8] was “no binding (tested: 300 nM)” throughout. The binding result in test [9], in test [10], in test [3], in test [11] and in [12] was “no binding (tested: 300 nM)” each time.

As for “CCL5 (from UniProt P13501 24-91) (ligand)”, the binding entry in [4], in [5], in test [2], in [6], in test [7] and in test [8] was “no binding (tested: 300 nM)” in each case. For the same substance, the binding entry in test [9], in test [10], in test [3], in [11] and in test [12] was “no binding (tested: 300 nM)” in each case.

With “CXCL13 (from UniProt O43927 23-109) (ligand)”, the binding result in test [1], in test [5], in test [2], in [8] and in test [3] was “no binding (tested: 300 nM)” in each case.

“CCL20 (from UniProt P78556 27-96) (ligand)”: the binding entry in test [4], in test [5], in test [2], in test [6], in [7] and in test [8] was “no binding (tested: 300 nM)” in each case. The binding entry in test [9], in test [10], in test [3], in [11] and in test [12] was “no binding (tested: 300 nM)” each time.

Consider “CCL21 (from UniProt O00585 24-134) (ligand)”, for which the binding result in test [4], in test [5], in test [2], in test [6], in [7] and in test [8] was “no binding (tested: 300 nM)” each time. For the same substance, the binding result in [9], in [10], in test [3], in test [11] and in test [12] was “no binding (tested: 300 nM)” each time.
